Reference: the BET-seq Pho4 binding data (Le et al. 2018)
The list shows a part of the results. The energies were worked out here from pooled read counts, against the library average; single values are noisy.

target: T1, Pho4 (S. cerevisiae) (UniProt P07270); assay: relative binding free energy (BET-seq); higher = weaker binding; conditions: reference: library average
T1 sequence: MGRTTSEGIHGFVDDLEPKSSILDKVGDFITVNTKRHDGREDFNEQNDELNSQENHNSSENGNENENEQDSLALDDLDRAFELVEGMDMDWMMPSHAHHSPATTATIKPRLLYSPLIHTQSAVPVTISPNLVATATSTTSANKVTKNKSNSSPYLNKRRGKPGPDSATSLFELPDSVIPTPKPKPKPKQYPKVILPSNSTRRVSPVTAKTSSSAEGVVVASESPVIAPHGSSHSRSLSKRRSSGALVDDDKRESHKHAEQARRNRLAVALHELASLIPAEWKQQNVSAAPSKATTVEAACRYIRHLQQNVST

| Sequence | relative binding free energy |
| --- | --- |
| TGTAGCACGTGGGGCG | -0.25 kcal/mol |
| ACTAGCACGTGTGTTG | -0.08 kcal/mol |
| ATTGTCACGTGGGTCC | 0 kcal/mol |
| GGGCCCACGTGAAGGT | 0.25 kcal/mol |
| AGTTCCACGTGTTGTG | 0.08 kcal/mol |
| GCGGGCACGTGTTTGA | -0.01 kcal/mol |
| AGGAGCACGTGTTTGT | -0.06 kcal/mol |
| ATTGGCACGTGCAGGC | -0.12 kcal/mol |
| AAATGCACGTGATTGG | 0.15 kcal/mol |
| GTTCTCACGTGATGCT | 0.31 kcal/mol |
| CGTTGCACGTGTGTTG | -0.06 kcal/mol |
| GTTTTCACGTGTGAGG | 0.37 kcal/mol |
| GTTCTCACGTGGGGTA | 0.11 kcal/mol |
| GTAGACACGTGGTTGG | 0.02 kcal/mol |
| AACGTCACGTGTTTAG | 0.22 kcal/mol |
| TTAGACACGTGTGGGA | 0.19 kcal/mol |
| GTTAACACGTGGCGGC | 0.19 kcal/mol |
| GGCTGCACGTGGGGGG | -0.09 kcal/mol |
| GTTAACACGTGGGGAG | 0.05 kcal/mol |
| ATGGCCACGTGGAGTG | -0.03 kcal/mol |
| TAAGCCACGTGTGGGT | -0.16 kcal/mol |
| AGTGGCACGTGACGGA | 0.05 kcal/mol |
| TTAGACACGTGTTATT | -0.01 kcal/mol |

| Sequence | relative binding free energy |
| --- | --- |
| TATCTCACGTGTTAAT | 0.28 kcal/mol |
| GTAGGCACGTGATTAT | 0.09 kcal/mol |
| GATTCCACGTGGGTGT | -0.09 kcal/mol |
| AGGATCACGTGGGCAT | 0.06 kcal/mol |
| GGTGTCACGTGGCGCA | 0.04 kcal/mol |
| AGTTACACGTGACAGT | 0.23 kcal/mol |
| CATTTCACGTGTGTTA | 0.18 kcal/mol |
| ATTTGCACGTGGGCGG | -0.09 kcal/mol |
| TGTGACACGTGGAAGG | 0.06 kcal/mol |
| AACGTCACGTGTGGGC | 0.26 kcal/mol |
| TGTAGCACGTGTTAGC | -0.02 kcal/mol |
| GGCAACACGTGAAGGG | 0.18 kcal/mol |
| GATATCACGTGTGTAG | 0.38 kcal/mol |
| GGTTCCACGTGTAGGG | 0.18 kcal/mol |
| TCTTGCACGTGGGGTC | -0.08 kcal/mol |
| TATTGCACGTGTGTAA | -0.03 kcal/mol |
| AAAATCACGTGAGTTT | 0.24 kcal/mol |
| GTGGGCACGTGTTTAA | 0.1 kcal/mol |
| CAGATCACGTGTTTTT | 0.16 kcal/mol |
| GTCAACACGTGTTTGT | 0.06 kcal/mol |
| AGGGACACGTGGCGGG | -0.14 kcal/mol |
| ATTGCCACGTGTGGTT | 0.02 kcal/mol |
| CGTGTCACGTGCATTG | -0.02 kcal/mol |

| Sequence | relative binding free energy |
| --- | --- |
| AGTATCACGTGTGAAA | 0.25 kcal/mol |
| TTTTTCACGTGGTTCC | 0.26 kcal/mol |
| GCTGGCACGTGTTTTA | 0.02 kcal/mol |
| TTGGACACGTGTGACT | 0.11 kcal/mol |
| CGGCACACGTGGAGGA | 0.12 kcal/mol |
| GGTCACACGTGGTGCG | 0.06 kcal/mol |
| TCAGTCACGTGAGCGG | 0.17 kcal/mol |
| CGTTTCACGTGGAGCT | 0.28 kcal/mol |
| GTGAGCACGTGGGCAT | -0.19 kcal/mol |
| ATAAGCACGTGTCGTG | -0.07 kcal/mol |
| ATCGTCACGTGTTGAA | 0.18 kcal/mol |
| GCTTTCACGTGTTTAT | 0.19 kcal/mol |
| TGTGTCACGTGGGATT | 0 kcal/mol |
| ATTATCACGTGACAGT | 0.18 kcal/mol |
| AAGTTCACGTGGAGGT | 0.19 kcal/mol |
| GGGGACACGTGTGTAG | 0.18 kcal/mol |
| ACGGTCACGTGGTTCT | 0.11 kcal/mol |
| ATTGTCACGTGCCGTT | -0.11 kcal/mol |
| ATATACACGTGTGGCT | 0.16 kcal/mol |
| TTCATCACGTGGGCTT | 0.13 kcal/mol |
| TATATCACGTGTGGAG | 0.26 kcal/mol |
| AGGGGCACGTGAGTCG | 0.04 kcal/mol |
| CGTGACACGTGTGGAG | 0 kcal/mol |

| Sequence | relative binding free energy |
| --- | --- |
| TTTTCCACGTGTCGTG | 0.08 kcal/mol |
| AAGGGCACGTGATTGT | -0.01 kcal/mol |
| TATTTCACGTGACGGA | 0.43 kcal/mol |
| TTTGCCACGTGGAGGT | 0.09 kcal/mol |
| TATGTCACGTGGGGAG | 0 kcal/mol |
| TATTTCACGTGATAGC | 0.26 kcal/mol |
| CTTTTCACGTGATATG | 0.16 kcal/mol |
| CTGGTCACGTGCTTGG | -0.03 kcal/mol |
| TGCATCACGTGGAAGG | 0.4 kcal/mol |
| ATATGCACGTGGGAGG | -0.1 kcal/mol |
| CGGTGCACGTGGACTT | -0.04 kcal/mol |
| GTAAACACGTGGGACG | 0.05 kcal/mol |
| AAGGGCACGTGGGTCG | -0.26 kcal/mol |
| TGTGTCACGTGTCATG | 0.07 kcal/mol |
| GGGGCCACGTGCTGGA | -0.2 kcal/mol |
| TGGTGCACGTGGAGTA | -0.08 kcal/mol |
| AGGGTCACGTGGTCGA | 0.04 kcal/mol |
| ATAGTCACGTGACGGG | -0.05 kcal/mol |
| TGCTTCACGTGTTAGG | 0.14 kcal/mol |
| AGAGTCACGTGGGCAT | 0.07 kcal/mol |
| TTATGCACGTGGTTGC | -0.04 kcal/mol |
| CGTAGCACGTGGTGTA | -0.12 kcal/mol |
| GGTGGCACGTGCTGGC | -0.09 kcal/mol |

| Sequence | relative binding free energy |
| --- | --- |
| TTGATCACGTGTTGGT | 0.15 kcal/mol |
| CGTTGCACGTGTGATA | 0.11 kcal/mol |
| AAAAACACGTGGGGGT | 0 kcal/mol |
| AAGTGCACGTGTGCGG | -0.12 kcal/mol |
| TGTGTCACGTGCGGTC | 0.04 kcal/mol |
| GTGAGCACGTGATTTT | 0.18 kcal/mol |
| GAGGTCACGTGGGGAC | 0.06 kcal/mol |
| TTTTGCACGTGGTATA | -0.01 kcal/mol |
| TAGATCACGTGCGGGG | -0.07 kcal/mol |
| AAGGGCACGTGGTAGG | -0.11 kcal/mol |
| TTTTGCACGTGTCCGG | 0.15 kcal/mol |
| TTTAGCACGTGTTCTA | -0.08 kcal/mol |
| TTGATCACGTGGTGTG | -0.01 kcal/mol |
| TAAGTCACGTGTATTT | 0.14 kcal/mol |
| AACGTCACGTGGGGCT | -0.06 kcal/mol |
| TGAGTCACGTGAAGGC | 0.26 kcal/mol |
| AGTCGCACGTGATGTG | -0.02 kcal/mol |
| GGGGCCACGTGGGTAC | -0.05 kcal/mol |
| GGAGGCACGTGTGGAT | 0.1 kcal/mol |
| TATCGCACGTGGGTGG | -0.22 kcal/mol |
| TGCGGCACGTGTATGG | -0.03 kcal/mol |
| TATGTCACGTGGCCGT | -0.04 kcal/mol |
| GATTTCACGTGTAATT | 0.46 kcal/mol |
